The whole screen tested about 360,000 compounds, of which about 2,600 (0.72%) were called active. Inconclusive results, whose numbers are uncertain, are shown with a selection of clear calls. Calls follow the shape of the dose curve; as a rule, active = well fitted inhibition curve with a large enough effect; inconclusive = small, poorly fitted or top-dose-only effect; inactive = no such curve, though single readings can be large or run the other way. Potencies of inconclusive entries are doubtful fits and often do not repeat.
Test: Primary qHTS for Inhibitors of ATXN expression; also: nearly all actives have a fitted effect of over 55% in size
Conditions: HEK-293 ATXN2-luciferase reporter, luminescence, 24 h; series mostly up to 57 µM
Summary of the method: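 ATXN2-luciferase reporter cells (luciferase flanked by upstream and downstream ATXN2 gene portions) were treated 24 h at 37 °C with compounds at up to 57 uM. SteadyGlo luminescence gave expression; GF-AFC fluorescence gave viability.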
Potency is read from the fitted curve at half-maximal effect; tags tell the direction and shape of the fitted curve.

Potency, inconclusive:
O=C(Nc1ncc(Cc2cccc(Cl)c2Cl)s1)c1ccc([N+](=O)[O-])cc1 31.6 µM [inhibitor, single point], CCC(CO)Oc1cc(NCc2ccc(Cl)cc2)c2ncn(C(C)C)c2c1 (centres undefined) 25.1 µM [inhibitor, single point], O=C(Nc1cccc([N+](=O)[O-])c1)c1cc2ccccc2cc1O 7.94 µM [inhibitor, full curve, poor fit], CCCCCCOC(=O)N=C(N)c1ccc(NCc2nc3cc(C(=O)N(CCC(=O)OCC)c4ccccn4)ccc3n2C)cc1 34.3 µM [inhibitor, single point], COc1cc(CNC(=O)c2ccc3nc(Cc4ccccc4)oc3c2)cc(OC)c1OC 7.94 µM [inhibitor, partial curve, poor fit], C=CC[C@@H](CC(=O)N[C@H](CO)Cc1ccccc1)C(=O)NCCOC(=O)[C@@H](CC=C)Cc1ccc(F)cc1 25.1 µM [inhibitor, partial curve, poor fit], O=C(NCC1CCCCC1)c1cc(-c2cc(F)ccc2OCC2CCCO2)n[nH]1 (centres undefined) 39.8 µM [inhibitor, single point], N#C/C(=C(/O)CCl)c1nc2ccccc2[nH]1 37.7 µM [inhibitor, single point], CCN1CCN(CCCNC(=O)c2ccc3c(Cl)c4c(nc3c2)CCCC4)CC1 35.5 µM [inhibitor, single point], C#CCN(C[C@@H]1[C@@H](OC(=O)NC2CCCC2)[C@@H](OC(=O)NC2CCCC2)Cn2c(=O)ccc(=O)n21)S(=O)(=O)c1ccc(C)cc1 4.47 µM [inhibitor, single point], Cc1cc(C)nc(NC(N)=NCCc2c[nH]c3ccccc23)n1 7.08 µM [inhibitor, partial curve, poor fit], CCOC(=O)N1CCN(S(=O)(=O)c2ccc(C(=O)NNc3nc4ccc(Cl)cc4s3)cc2)CC1 33.6 µM [inhibitor, single point], N#Cc1ccc(COC(=O)CSc2nnc(N)s2)cc1 1.41 µM [inhibitor, partial curve], CN(CCCNC(=O)c1cccn2c(=O)c3ccccc3nc12)Cc1ccccc1 31.6 µM [inhibitor, single point], COc1cc(C(=O)NC(c2ccc(Cl)cc2)c2cc(Cl)c3cccnc3c2O)cc(OC)c1OC (centres undefined) 3.16 µM [inhibitor, full curve, poor fit], COc1cccc(/C(O)=C/c2nc3ccc(C(=O)NCCc4ccc(Cl)cc4)cc3[nH]c2=O)c1 31.6 µM [inhibitor, single point], Cc1ccc(-c2nn3c(C)nnc3s2)cc1NC(=O)c1ccc(-c2cccc(Cl)c2)o1 22.4 µM [inhibitor, single point], Cc1cccc(CN2CCN([C@H]3CS(=O)(=O)N[C@@H]3COCc3ccccc3)CC2)c1 39.8 µM [inhibitor, single point], Cc1ccc(-n2nc3c(N4CCC(C(=O)NCc5ccccc5Cl)CC4)nnc(C)c3c2C)cc1 3.16 µM [inhibitor, partial curve, poor fit], CC(=O)n1cc(N(C(=O)CCl)c2ccccc2)c2ccccc21 39.8 µM [inhibitor, single point], CN1CCc2cc3c(c4c2[C@H]1[C@H](O)c1ccccc1-4)OCO3 28.2 µM [inhibitor, single point], COc1c(C(CC(C)C)OC(C)=O)ccc2c1C(=O)OCc1cc(C)cc(O)c1O2 (centres undefined) 25.1 µM [inhibitor, single point], COC(=O)[C@]1(C)CCC[C@@]2(C)C3CC[C@]4(OC(C)=O)C[C@@]3(CCC21)CC4=NO (some centres undefined) 39.8 µM [inhibitor, single point], CCCc1nc2ccccc2c(C(=O)OCC(=O)Nc2ccc(S(=O)(=O)N3CCOCC3)cc2)c1CC 25.1 µM [inhibitor, single point], COc1ccc(Cn2ccc3nc(C)c(C(=O)NCc4cccc(OC)c4)cc3c2=O)cc1 0.447 µM [inhibitor, full curve, poor fit], Cc1ccc(Cl)cc1N1CCN(C(c2cccnc2)c2nnnn2C2CCCCC2)CC1 (centres undefined) 39.8 µM [inhibitor, single point], CCOC(=O)CSc1nnc2n(-c3ccccc3)c(=O)c3c4c(sc3n12)CC(C(C)(C)C)CC4 (centres undefined) 25.1 µM [inhibitor, single point], COc1ccc(S(=O)(=O)c2c(C(=O)c3ccc(C)c(C)c3)cnc3ccc(F)cc23)cc1 35.5 µM [inhibitor, single point], CCCNC(=O)c1c(CSc2ccc(Cl)cc2)noc1C(=O)NCc1ccccc1 20 µM [inhibitor, partial curve, poor fit], O=S(=O)(Nc1cccc(C(F)(F)F)c1)c1ccc(-c2cnc(C3CC3)o2)cc1 15.8 µM [inhibitor, partial curve, poor fit], NC(CCc1ccccc1)c1csc(Nc2ccc(C(F)(F)F)cn2)n1 (centres undefined) 28.2 µM [inhibitor, single point], CCc1ccc(NS(=O)(=O)c2cc(-c3cnc(C4CC4)o3)ccc2C)cc1 35.5 µM [inhibitor, partial curve, poor fit], CCN1CCN(c2cc(C(C)C)nc3c(-c4ccccc4)c(C)nn23)CC1 39.8 µM [inhibitor, partial curve, poor fit], Cc1nnc(NCc2n[nH]c(=O)c3ccccc23)c2ccccc12 39.8 µM [inhibitor, single point], Nc1c(C(=O)Nc2ccc(S(=O)(=O)N3CCCC3)cc2)sc2nc3ccc(OC(F)(F)F)cc3cc12 12.6 µM [inhibitor, partial curve], COc1ccc(CNc2cc(C)nc3ccc(OC)cc23)cc1 15 µM [inhibitor, partial curve], CCCn1c(SCC(=O)Nc2ccccc2N2CCCCC2)nc2c1c(=O)n(C)c(=O)n2C 39.8 µM [inhibitor, single point], O=[N+]([O-])c1cc(-c2ccc(/C=N/c3nc4ccccn4c3-c3ccco3)o2)ccc1Cl 39.8 µM [inhibitor, single point], Cc1cc(C)cc(Nc2nc(-c3ccc(S(=O)(=O)N4CCCC4)cc3)cs2)c1 12.6 µM [inhibitor, partial curve], CCc1nc2ccc(C(=O)Nc3ccc(NC(C)=O)cc3)cn2c1N(C)CCCc1ccccc1 39.8 µM [inhibitor, single point]

Potency, active:
C#CCOCCOCCOCCNc1nc(N2CCN(C(=O)CCCCCCCCCCNC(=O)[C@H]([C@@H](C)CC)n3cc(CCCCCN)nn3)CC2)nc(N2CCN(C(=O)CCCCCCCCCCNC(=O)[C@@H]([C@H](C)O)n3cc(C)nn3)CC2)n1 15.8 µM, Fc1cc(-c2cccc3ncc(-c4cnn(C5CCNCC5)c4)nc23)cc(F)c1CN1CCOCC1 24.3 µM, O=C1N/C(=N\N=C\c2cccnc2)SC1Cc1ccc(SC(F)F)cc1 (centres undefined) 12.6 µM, Fc1ccc2[nH]c3c(N4CCSCC4)ncnc3c2c1 15.8 µM, CNC[C@H](CC1CCCCC1)NC[C@H](CO)NCCc1cccc(C(F)(F)F)c1 28.2 µM, COc1ccc(-c2cc(C(=O)N3CCCC3)no2)cc1 8.91 µM, O=C(O)c1cccc(N/N=C/c2cccs2)c1 10 µM, Oc1ccccc1C(Nc1nccs1)c1ccc2cccnc2c1O (centres undefined) 7.08 µM, CC(C)Oc1ccc(C(=O)Nc2nnc(SCC(=O)N3CCOCC3)s2)cc1 10 µM

Potency, inactive:
COc1ccc2c(c1)c1c(c(=O)n(-c3ccc(OC)c(OC)c3)c(=O)n1Cc1ccc(F)cc1)n2C, COc1cccc(Cn2nnc(C(=O)NCc3ccc(Cl)cc3Cl)c2N)c1, CCN(CC)c1ccc(/C=N/n2c(-c3ccccc3Br)n[nH]c2=S)cc1, O=C(Nc1ccc([N+](=O)[O-])cc1)N1CCc2ccccc2C1, CC(=O)N(c1ccc2oc(=O)sc2c1)S(=O)(=O)c1ccccc1, Cc1ccc(C(=O)NCCOc2ccc(Cl)cc2)cc1, COc1cc(Nc2ccn3nc(-c4ccc(F)cc4)cc3n2)cc(OC)c1OC, Cc1ccc(CNc2nc3cc(-c4ccccc4C)sc3c(=O)n2C)c(C)c1, O=C(CNc1cccc([N+](=O)[O-])c1)NCCCc1ccccc1, Nc1ccc(N2CCN(CCCCN3C(=O)C4CCCN4C3=O)CC2)cc1 (centres undefined), CCOc1ccc(-c2nc(=S)[nH][nH]2)cc1, O=C(Nc1ccc(F)cc1)c1ccc(-n2cncn2)c([N+](=O)[O-])c1, CC(=O)N1CCc2cc(S(=O)(=O)NCCCN3CCN(Cc4ccccc4)CC3)ccc21, COc1ccc(/C=N/Nc2ccc(C(=O)O)cc2)c(OC)c1OC, Cc1cc2cc(CNC(=S)Nc3ccc(OC(F)F)cc3)ccc2n1C

Reference: PubChem BioAssay AID1745845 (National Center for Advancing Translational Sciences (NCATS), 2022)
